These results are taken from patent publication US20240059769A1 (BIOLOJIC DESIGN, published 2024).

Assay [1] addresses IL-13R/IL-4R receptor complex (human, UniProt P78552 22-427; P24394 26-825). In words: cell-based or functional assay.
Another assay has as its target T1, anti-IL-13 control.
T1 construct: also called anti-IL-13 control antibody
In words: competition ELISA: 20 nM antibody pre-incubated with soluble hIL-13 (0.78-200 nM), then on a plate coated with hIL-13; bound IgG detected with anti-human Fc-HRP. On the technique in general: In an ELISA, binding on a coated surface is turned into a signal by an enzyme label.

The next assay has as its target T2, BDG33.023.
T2 construct: standard IgG; also called BGD33.023; BDG33.0023
The assay is described as above.

T2 sequence (VH, as listed by the source, chain 1 of 2): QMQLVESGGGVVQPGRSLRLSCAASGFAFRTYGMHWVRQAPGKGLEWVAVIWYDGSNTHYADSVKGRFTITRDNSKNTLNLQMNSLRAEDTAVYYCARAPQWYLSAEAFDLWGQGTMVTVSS
T2 sequence (VL, as listed by the source, chain 2 of 2): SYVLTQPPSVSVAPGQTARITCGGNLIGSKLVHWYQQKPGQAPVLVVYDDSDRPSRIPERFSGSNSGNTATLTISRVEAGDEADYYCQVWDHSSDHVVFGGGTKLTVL

B1: recombinant human IL-13 (ligand)
chain: not shown
notes: also called rh-IL-13; hIL-13
With B1, the “EC50, HEK-Blue IL-4/IL-13 reporter (SEAP)” value in assay [1] is around 0.12 nM. For the same molecule, the “IC50 (read off the curve)” value with anti-IL-13 control is around 10 nM; with BDG33.023, around 20 nM.
